Data from paper PMC4336329 (PLoS ONE, 2015).
The whole screen tested about 310,000 compounds, of which about 14,000 (4.5%) showed an effect of 50% or more. The effect is printed as a negative number. The list shows a part of the results.
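Note: peak tail current of the secondary pulse compared with the same well before compound.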

The compounds below were run against human ether-à-go-go-related gene (hERG) potassium channel (human, UniProt Q12809) (assay: primary screen, population patch clamp on CHO cells stably expressing hERG).
Sequence of human ether-à-go-go-related gene (hERG) potassium channel (Q12809 whole entry, looked up): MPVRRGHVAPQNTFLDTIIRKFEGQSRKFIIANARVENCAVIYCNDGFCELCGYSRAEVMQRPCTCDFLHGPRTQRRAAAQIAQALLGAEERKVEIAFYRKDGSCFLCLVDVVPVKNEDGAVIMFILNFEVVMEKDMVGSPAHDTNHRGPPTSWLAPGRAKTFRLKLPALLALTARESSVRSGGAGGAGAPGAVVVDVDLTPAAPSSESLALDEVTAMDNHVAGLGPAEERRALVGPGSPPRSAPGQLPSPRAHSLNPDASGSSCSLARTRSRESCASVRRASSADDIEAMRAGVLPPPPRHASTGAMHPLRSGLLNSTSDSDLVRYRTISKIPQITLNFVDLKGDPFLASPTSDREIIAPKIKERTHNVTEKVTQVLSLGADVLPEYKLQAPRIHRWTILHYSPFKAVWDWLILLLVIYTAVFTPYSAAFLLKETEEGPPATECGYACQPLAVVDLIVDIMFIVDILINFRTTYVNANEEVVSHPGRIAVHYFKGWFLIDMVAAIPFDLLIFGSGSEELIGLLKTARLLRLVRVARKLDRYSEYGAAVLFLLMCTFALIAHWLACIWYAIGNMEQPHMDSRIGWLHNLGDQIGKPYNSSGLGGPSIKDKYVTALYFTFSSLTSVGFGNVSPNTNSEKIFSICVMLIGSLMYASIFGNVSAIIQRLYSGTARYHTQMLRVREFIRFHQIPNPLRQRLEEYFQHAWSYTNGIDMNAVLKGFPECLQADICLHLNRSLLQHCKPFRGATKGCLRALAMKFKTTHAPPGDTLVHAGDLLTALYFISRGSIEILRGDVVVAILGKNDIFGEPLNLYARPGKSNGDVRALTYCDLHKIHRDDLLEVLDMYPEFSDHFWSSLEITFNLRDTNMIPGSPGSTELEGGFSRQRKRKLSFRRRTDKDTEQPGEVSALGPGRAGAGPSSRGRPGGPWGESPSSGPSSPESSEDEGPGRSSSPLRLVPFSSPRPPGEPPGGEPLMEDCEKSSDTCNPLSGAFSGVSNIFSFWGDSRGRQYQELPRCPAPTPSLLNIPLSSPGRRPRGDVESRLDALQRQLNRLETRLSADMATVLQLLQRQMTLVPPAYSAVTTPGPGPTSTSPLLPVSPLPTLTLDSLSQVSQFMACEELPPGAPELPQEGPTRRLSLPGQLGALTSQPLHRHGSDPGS
With `Cn1c(SCC(=O)Nc2nncs2)nnc1C1CC1` the “hERG current change (%, negative = inhibition) at 10uM” value was 4.58%.
For `CC12CC3CC(C)(C1)CC(C(=O)N1CCN(C(=O)c4ccco4)CC1)(C3)C2`, the “hERG current change (%, negative = inhibition) at 10uM” value was -25.6%.
`COc1ccccc1C(=O)NNC(=O)c1csc(N2CCOCC2)n1` was tested, and the “hERG current change (%, negative = inhibition) at 10uM” value was 8.26%.
With `O=C(/C=C/c1cccc(F)c1)N1CCc2ccccc21` the “hERG current change (%, negative = inhibition) at 10uM” value was 4.51%.
In the case of `COc1cc2[nH]c(C(=O)N3CCN(c4ccccc4F)CC3)cc2c(OC)c1OC`, the “hERG current change (%, negative = inhibition) at 10uM” value is reported as 0.943%.
With `O=C(CSc1nncc2ccccc12)N1CCCCC1` the “hERG current change (%, negative = inhibition) at 10uM” value was 11.1%.
For `COc1ccc(/C=C2\COc3ccccc3C2=O)c(OC)c1`, the “hERG current change (%, negative = inhibition) at 10uM” value was -1.37%.
`COC(=O)c1ccc(CSc2nnc(-c3c[nH]c4ccccc34)n2-c2ccccc2)cc1` was tested, and the “hERG current change (%, negative = inhibition) at 10uM” value was 1.78%.
`O=C(Nc1ccccn1)c1cc(-c2cccnc2)nc2ccc(Br)cc12` was tested, and the “hERG current change (%, negative = inhibition) at 10uM” value was 14.2%.
For `C/C(=N/NC(=O)CCc1c(C)n[nH]c1C)c1cccc([N+](=O)[O-])c1`, the “hERG current change (%, negative = inhibition) at 10uM” value was 2.87%.
For `CCCCCc1c(C)c(C#N)c2nc3ccccc3n2c1-n1ccnc1C`, the “hERG current change (%, negative = inhibition) at 10uM” value was -21.2%.
In the case of `O=C(CCCCCBr)N1CCC(CC2CC(c3ccc(Cl)cc3)=NO2)(C(=O)NCC2CCCCC2)CC1` (centres unmarked), the “hERG current change (%, negative = inhibition) at 10uM” value is reported as -74.6%.
`CCC(C)N(C)C1CCN(C(=S)Nc2cccc(SC)c2)CC1` (centres unmarked) was tested, and the “hERG current change (%, negative = inhibition) at 10uM” value was -45.8%.
In the case of `CCn1c(SCC(=O)N(C)Cc2ccc(OC)c(F)c2)nc2cc(S(N)(=O)=O)ccc21`, the “hERG current change (%, negative = inhibition) at 10uM” value is reported as -19%.
For `O=C(Nc1nc2ccccc2[nH]1)c1cccc(Br)c1`, the “hERG current change (%, negative = inhibition) at 10uM” value was 2.65%.
For `Cc1ccccc1OCC(=O)Nc1ccccc1C(=O)NC1CC1`, the “hERG current change (%, negative = inhibition) at 10uM” value was -7.92%.
With `Cc1ccc(C)c(NC(=O)COC(=O)c2cccc3c2C(=O)c2ccccc2C3=O)c1` the “hERG current change (%, negative = inhibition) at 10uM” value was -14.2%.
For `CCOC(=O)C1Nc2ccc(Br)cc2C2C=CCC12` (centres unmarked), the “hERG current change (%, negative = inhibition) at 10uM” value was 13.6%.
`CC(C)[C@H](NC(=O)Nc1cccc(C(F)(F)F)c1)C(=O)O` was tested, and the “hERG current change (%, negative = inhibition) at 10uM” value was 5.82%.
With `O=C1CC2(CCN(C(=O)COc3ccccc3F)CC2)Oc2ccccc21` the “hERG current change (%, negative = inhibition) at 10uM” value was -49.1%.
`Cc1ccccc1NC(=O)C(=O)N/N=C/c1cccc(Br)c1` was tested, and the “hERG current change (%, negative = inhibition) at 10uM” value was -2.27%.
With `CCOC(=O)C1Cn2c(nc3c(c2=O)C(C)(CC)Cc2ccccc2-3)S1` (centres unmarked) the “hERG current change (%, negative = inhibition) at 10uM” value was -0.248%.
In the case of `COc1ccc(CN2CCCC(C(=O)c3sccc3C)C2)cc1O` (centres unmarked), the “hERG current change (%, negative = inhibition) at 10uM” value is reported as -71.9%.
For `O=C(C[n+]1cccc(CNC(=O)c2ccc(OC(F)F)cc2)c1)Nc1ccc(F)cc1.[Cl-]`, the “hERG current change (%, negative = inhibition) at 10uM” value was -16.8%.
In the case of `N#Cc1c(NC(=O)c2ccccc2Cl)n(Cc2ccccc2)c2nc3ccccc3nc12`, the “hERG current change (%, negative = inhibition) at 10uM” value is reported as 7.77%.
With `COc1cccc(-c2nc(S(=O)(=O)c3ccccc3)c(N3CCOCC3)o2)c1` the “hERG current change (%, negative = inhibition) at 10uM” value was -38.2%.
For `CC(C)(C)OC(=O)N1CCCC1C(=O)NCCc1ccccc1` (centres unmarked), the “hERG current change (%, negative = inhibition) at 10uM” value was 13.4%.
For `COc1cccc(CNC(=O)COC(=O)c2c(C)nn(-c3ccccc3)c2Cl)c1`, the “hERG current change (%, negative = inhibition) at 10uM” value was -9.35%.
In the case of `COCCNC(=S)N(c1ccccc1)C(C)C`, the “hERG current change (%, negative = inhibition) at 10uM” value is reported as -4.64%.
For `CCCCNC(C(=O)Nc1ccc([N+](=O)[O-])cc1Br)c1ccccc1` (centres unmarked), the “hERG current change (%, negative = inhibition) at 10uM” value was 5.72%.
In the case of `CCOC(=O)N1CCN(C(=O)C2CCCN(S(=O)(=O)c3ccc(F)cc3)C2)CC1` (centres unmarked), the “hERG current change (%, negative = inhibition) at 10uM” value is reported as -10.1%.
`COCCOc1ccc(C(F)(F)F)cc1NC(=O)COC(=O)c1c(C)noc1C` was tested, and the “hERG current change (%, negative = inhibition) at 10uM” value was -5.64%.
For `Cc1ccc(CNC(=O)C(=O)NCCC2CCCCN2S(=O)(=O)c2ccccc2)cc1` (centres unmarked), the “hERG current change (%, negative = inhibition) at 10uM” value was -26.6%.
`CC(=O)Cc1ccccc1OC(=O)c1ccco1` was tested, and the “hERG current change (%, negative = inhibition) at 10uM” value was 23.6%.
`COc1cccc(CSc2nc3ccncc3[nH]2)c1` was tested, and the “hERG current change (%, negative = inhibition) at 10uM” value was -10.4%.
`CC(C)C(NC(=O)c1ccco1)C(=O)NCc1ccc(C(=O)O)cc1` (centres unmarked) was tested, and the “hERG current change (%, negative = inhibition) at 10uM” value was 22.8%.
With `O=C1C=C(NNC(=O)c2cccnc2)CC(c2ccco2)C1` (centres unmarked) the “hERG current change (%, negative = inhibition) at 10uM” value was 10.8%.
In the case of `CCc1ccc(NC(=O)CSc2nnc(CNC(=O)c3ccc(OC)cc3)o2)cc1`, the “hERG current change (%, negative = inhibition) at 10uM” value is reported as -9.12%.
In the case of `CCOC(=O)C1=C(COC(=O)/C=C/c2ccccc2Cl)NC(=O)NC1C` (centres unmarked), the “hERG current change (%, negative = inhibition) at 10uM” value is reported as -0.794%.
For `CCOc1ccccc1CNC(=O)CCc1cn(CC)c2ccccc12`, the “hERG current change (%, negative = inhibition) at 10uM” value was -31.9%.
In the case of `O=C(Cc1ccccc1)N/N=C/c1ccccc1OCc1ccc(Cl)cc1`, the “hERG current change (%, negative = inhibition) at 10uM” value is reported as 21.7%.
For `Cc1ccc(NC2=NCC(=O)N2C2CCCC2)c(C)c1.Cl`, the “hERG current change (%, negative = inhibition) at 10uM” value was 0.358%.
For `O=C(CCSc1nnc(-c2ccco2)o1)Nc1ccc(F)cc1`, the “hERG current change (%, negative = inhibition) at 10uM” value was 8.75%.
`COc1ccc(OCc2nnc(SCC(=O)Nc3ccccc3Cl)o2)cc1` was tested, and the “hERG current change (%, negative = inhibition) at 10uM” value was 13.7%.
In the case of `Cc1nc(Cc2nnc(SC(C)C(=O)Nc3cccc(C#N)c3)o2)cs1` (centres unmarked), the “hERG current change (%, negative = inhibition) at 10uM” value is reported as 13.1%.
In the case of `COc1cc(C(=O)NCc2nnc(SCC(=O)N3CCCc4ccccc43)o2)cc(OC)c1OC`, the “hERG current change (%, negative = inhibition) at 10uM” value is reported as -1.5%.
`CCCCn1c(=O)c(C(=O)NCCc2ccccc2)c(O)c2ccccc21` was tested, and the “hERG current change (%, negative = inhibition) at 10uM” value was 24.4%.
For `Cc1oc(-c2ccccc2F)nc1CS(=O)(=O)CC(=O)NC(C)CCc1ccccc1` (centres unmarked), the “hERG current change (%, negative = inhibition) at 10uM” value was -32.2%.
In the case of `Cc1ccc(OCC(=O)OC(C)CN2CCCCC2)cc1.Cl` (centres unmarked), the “hERG current change (%, negative = inhibition) at 10uM” value is reported as 12.2%.
For `Cc1cc(/C=C2\SC(=O)NC2=O)c(C)n1-c1ccc(N2CCOCC2)cc1`, the “hERG current change (%, negative = inhibition) at 10uM” value was 7.07%.
For `COc1cc(OC)cc(C(=O)NNC(=O)CNC(=O)c2ccc(Br)o2)c1`, the “hERG current change (%, negative = inhibition) at 10uM” value was 1.04%.
`COc1cc(CC(=O)NCCCc2ccccc2)cc(OC)c1OC` was tested, and the “hERG current change (%, negative = inhibition) at 10uM” value was -7.1%.
`Nc1nnnn1N=C1CCCCC1` was tested, and the “hERG current change (%, negative = inhibition) at 10uM” value was -38.6%.
For `CCC(C)(C)n1nnnc1C(c1cc2cc3c(cc2[nH]c1=O)OCO3)N1CCCCC1` (centres unmarked), the “hERG current change (%, negative = inhibition) at 10uM” value was -21.1%.
`Cn1c(=O)c2c3c(sc2n2c(SCc4ccccc4)nnc12)CCCC3` was tested, and the “hERG current change (%, negative = inhibition) at 10uM” value was -9.93%.
With `Cc1ccc(NC(=O)Cc2ccc3c(c2)OCCO3)cc1S(=O)(=O)N1CCCCC1` the “hERG current change (%, negative = inhibition) at 10uM” value was 21.2%.
